# Assay results as given in article PMC6919601, “Identification of Plasmodium dipeptidyl aminopeptidase allosteric inhibitors by high throughput screening” (PLoS ONE, 2019).
# The whole screen tested about 110,000 compounds, of which about 230 (0.21%) showed an effect of 50% or more. The list shows a part of the results.
# Target: DPAP1 (Plasmodium falciparum, UniProt Q8IIJ9)
# Assay: primary screen, percent inhibition; read by cleavage of a fluorogenic dipeptide substrate; higher = more effect of the substance
# Design: species or system P. falciparum D10 trophozoite lysates; single well
# 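Also: 30 min substrate incubation versus DMSO and 10 µM JCP410 controls.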
# Chain of DPAP1 (Q8IIJ9 whole entry, looked up): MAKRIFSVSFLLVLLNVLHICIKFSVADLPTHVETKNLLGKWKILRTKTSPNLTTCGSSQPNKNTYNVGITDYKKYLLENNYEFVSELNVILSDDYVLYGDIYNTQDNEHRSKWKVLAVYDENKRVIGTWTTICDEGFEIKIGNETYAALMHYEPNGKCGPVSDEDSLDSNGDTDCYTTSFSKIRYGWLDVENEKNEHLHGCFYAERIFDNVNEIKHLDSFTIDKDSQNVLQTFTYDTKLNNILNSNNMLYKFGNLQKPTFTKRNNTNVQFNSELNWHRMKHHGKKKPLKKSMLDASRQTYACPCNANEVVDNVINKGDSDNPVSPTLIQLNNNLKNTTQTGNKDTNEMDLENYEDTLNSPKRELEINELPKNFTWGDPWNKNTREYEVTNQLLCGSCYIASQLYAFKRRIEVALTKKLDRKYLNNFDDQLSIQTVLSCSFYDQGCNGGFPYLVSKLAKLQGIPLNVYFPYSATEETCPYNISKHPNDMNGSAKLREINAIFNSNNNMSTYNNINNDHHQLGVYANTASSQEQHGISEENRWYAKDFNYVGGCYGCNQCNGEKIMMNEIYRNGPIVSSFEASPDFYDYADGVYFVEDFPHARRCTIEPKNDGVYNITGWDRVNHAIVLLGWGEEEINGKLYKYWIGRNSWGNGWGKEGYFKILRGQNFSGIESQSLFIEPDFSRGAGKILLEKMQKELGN
row,SMILES,% Inhibition @ 10 uM [%]
1,OCCN1CCN(Cc2ccc(Br)cc2)CC1,3.47
2,Fc1ccccc1N1CCN(CC(S)COCc2ccccc2)CC1 (stereo not drawn),-1.68
3,Cc1cc(/C=C2\C(=N)N3N=C(S(=O)(=O)CC(C)C)SC3=NC2=O)c(C)n1Cc1ccccc1,-1.54
4,O=C(CCCn1c(=O)c2cccn2c2cccnc21)NCCCN1CCOCC1,1.22
5,CC(C)(C)c1ccc(OCC(O)CN2CCCCC2)cc1 (stereo not drawn),-2.12
6,CCOc1ccc(-c2cn3nc(C4CCCCC4)sc3n2)cc1,4
7,CCOc1ccccc1CNCc1c(C(=O)O)n(Cc2cccc(F)c2)c2cc(C)ccc12,-0.899
8,CN1CCC(COC2c3ccccc3C=Cc3ccccc32)CC1,2.01
9,COc1cc(C(=O)c2ccccc2)c(OC)cc1C(=O)Nc1ccc(N(C)C)cc1,3.69
10,O=S(=O)(Nc1cc(Cl)cc(Cl)c1)c1ccc(F)cc1,-3.44
11,COc1cc(/C=C2\SC(N)=NC2=O)ccc1OCc1ccc(C)cc1,11.9
12,CCC(C)c1ccccc1OCC(=O)Nc1ccc(C(N)=O)cc1 (stereo not drawn),-2.74
13,O=C(COc1ccc(Cl)cc1)Nc1cccc(NC(=O)COc2ccc(Cl)cc2)c1,-2.82
14,CC(=O)NS(=O)(=O)c1ccc(NC(=O)COc2ccc(Br)c(C)c2)cc1,3.58
15,CCCC1CCc2c(sc(NC(=O)c3ccccc3OCC)c2C(N)=O)C1 (stereo not drawn),-3.26
16,CCCS(=O)(=O)N1CCN(Cc2ccc(OC)c(OC)c2)CC1,-1.6
17,Cc1coc2c(C)c3oc(=O)c(CC(=O)NCCc4ccccc4F)c(C)c3cc12,4.13
18,Cn1c(=O)c(Sc2ccccc2)c(Cl)c2ccccc21,-3.77
19,CC(NC(=O)c1ccccc1[N+](=O)[O-])c1ccccc1 (stereo not drawn),0.716
20,CCC(=O)Nc1nonc1-c1nc2ccccc2n1Cc1cccc2ccccc12,-1.92
21,C=CCOC(=O)C1=C(C)N=C2CCCC(O)=C2C1c1ccccc1Cl (stereo not drawn),19.2
22,COc1ccc(CNC(=O)c2cc(-c3cc(OC)ccc3OC)on2)cc1,3.55
23,COC(F)(C(=O)Nc1cccn2cc(-c3ccccc3)nc12)C(F)(F)F (stereo not drawn),-5.15
24,Cc1ccc(S(=O)(=O)N(C)CCCC(=O)N2CCN(c3ccccn3)CC2)cc1,3.8
25,CC1CN(c2ncccn2)CC(C)O1 (stereo not drawn),-4

row,SMILES,% Inhibition @ 10 uM [%]
1,O=C(c1cc(Cl)ccc1Cl)N1CCN(c2ccc(F)cc2)CC1,2.16
2,Nc1c(-c2nc(-c3cccs3)no2)nnn1-c1ccccc1,0.0603
3,CCC(Sc1nncn2c1cc1oc(C)cc12)C(=O)NCc1ccc(C)cc1 (stereo not drawn),0.335
4,CCNc1nc2nc(O)c3c(c2s1)OC(N)=C(C#N)C3c1cccnc1 (stereo not drawn),-11
5,CN(C)CCCC(C(N)=O)c1ccccc1Sc1ccc(Cl)cc1 (stereo not drawn),-2.34
6,CC(C)(C)C1CN(C(C)(C)C)CC(O)(c2ccccc2)C1 (stereo not drawn),-1.54
7,O=C(c1cc(C2CC2)[nH]n1)N1CCN(C(=O)c2cccs2)CC1,-3.5
8,CC(CNCc1c(C(=O)O)n(Cc2ccccc2)c2ccccc12)c1ccccc1 (stereo not drawn),5.09
9,CCC(C)NC(=O)CN(Cc1ccccc1)S(=O)(=O)c1cc(Cl)ccc1Cl (stereo not drawn),-3.33
10,Cc1cc(NC(=O)c2cc3nc(-c4ccc(Br)cc4)cc(C(F)(F)F)n3n2)no1,2.65
11,C=CCNC(=O)/C(C#N)=C/c1c(Oc2ccc(C(C)(C)C)cc2)nc2c(C)cccn2c1=O,0.315
12,Fc1ccc(OCCCN2CCCC2)cc1,-2.12
13,CCC1C=C(c2ccc([N+](=O)[O-])cc2)OC(N2CCCCC2)C1C (stereo not drawn),3.25
14,O=C(Cn1cnc2ccccc21)Nc1ccc([N+](=O)[O-])cc1,4.89
15,COc1cccc(C2c3c(oc4cc(C)c(C)cc4c3=O)C(=O)N2c2nccs2)c1 (stereo not drawn),3.73
16,Cn1c2ccccc2c2cnn(CC(=O)NCCc3c[nH]c4ccccc34)c(=O)c21,-3.67
17,CNC(=O)CCC(=O)N1Cc2cccc(OC)c2Oc2ncccc21,2.01
18,Cc1cccnc1NC(=O)c1cc2c(=O)oc3ccccc3c2s1,5.4
19,c1ccc2nc(N3CCCCCC3)ccc2c1,-1.2
20,O=C(Cn1c(=O)n(Cc2ccccc2)c(=O)c2sc3ccccc3c21)NCc1ccccc1,2.04
21,CS(=O)(=O)N1CCN(C/C=C/c2ccccc2)CC1,-1.18
22,CO/C(O)=C1/C(C)=Nc2ncnn2C1c1cccnc1 (stereo not drawn),-2.13
23,O=C(/C=C/c1ccc(-c2ccccc2)cc1)NCCOc1ccc(F)cc1,-1.68
24,N#CC1=C(N)Oc2cc(N)ccc2C1c1cc(Br)cs1 (stereo not drawn),3.1
25,COc1ccc(C(=O)NCCc2cccc(OC)c2)cc1,-10.3

row,SMILES,% Inhibition @ 10 uM [%]
1,O=C(CSc1nc(-c2ccco2)nc2cc(=O)[nH]n12)N1CCCC1,-2.5
2,Cc1ccc(NC(=O)CC(C(=O)O)c2ccccc2)cc1 (stereo not drawn),-0.95
3,CCn1c(C2CC(=O)N(c3ccccc3)C2)nc2ccccc21 (stereo not drawn),10.6
4,COc1ccc(-c2ccc(CNCCSc3nnnn3-c3ccccc3)o2)cc1Cl,0.596
5,COc1ccc(C)cc1N(CC(=O)NCC(C)C)S(=O)(=O)c1ccc(C)cc1,5.26
6,COc1ccc(C(=O)CC2(O)C(=O)N(Cc3ccccc3)c3ccccc32)cc1OC (stereo not drawn),-9.45
7,O=C(O)COc1ccc(-c2nnn(Cc3ccccc3)n2)cc1,5.45
8,CC1(C)CC2CC(C)(CN2C(=O)c2cc(-c3ccc4c(c3)OCO4)on2)C1 (stereo not drawn),-3.77
9,CN(C1CCCCC1)C1CCN(CCc2ccccc2)CC1,1.26
10,COc1cc(C2C(C#N)=C(N)Oc3cc(N)ccc32)ccc1O (stereo not drawn),-2.32
11,CC1(C)CC(=O)C2=C(C1)N(CC1CCCO1)C(=O)C2(NC(=O)c1ccco1)C(F)(F)F (stereo not drawn),-5.4
12,O=C(Nc1nc[nH]n1)c1cccc2ccccc12,-2.42
13,Cn1c2c(c(=O)n(C)c1=O)C(c1ccc([N+](=O)[O-])cc1)C1=C(O)c3ccccc3C1=N2 (stereo not drawn),-2.32
14,C(#Cc1ccc2noc(-c3ccccc3)c2c1)c1ccccc1,-4.58
15,O=C(Nc1ccc(S(=O)(=O)N2CCCCC2)cc1)C1CCCCC1,-5.92
16,COc1cc(OC)c2c(C(=O)O)cc(-c3ccc(O)c(OC)c3)nc2c1,0.8
17,Cc1nc2ccccc2n1C(C)c1ccccc1 (stereo not drawn),7.75
18,CCc1nc2ccccc2n1Cc1cccc(C)c1,-2.28
19,CC(C)C[C@H](NC(=O)c1cc(O)c2ccccc2n1)C(=O)NCC#N,0.556
20,O=C(NCc1cccnc1)C1CCCN(S(=O)(=O)c2ccc3nc(O)ccc3c2)C1 (stereo not drawn),-7.74
21,COc1cccc(C2CC(=O)N3CN(C4CCCCC4)CSC3=C2C#N)c1OC (stereo not drawn),21.8
22,COc1ccccc1NS(=O)(=O)c1ccc(F)cc1,0.827
23,N#Cc1cn(CC(=O)NCC2CCCO2)c2ccccc12 (stereo not drawn),0.777
24,CCC(C)NC(=O)CCC(=O)N1Cc2cccc(OC)c2Oc2ncccc21 (stereo not drawn),-0.436
25,CC1=C(C(=O)Nc2ccccc2C(F)(F)F)C(c2ccc(F)cc2)C2=C(O)CCCC2=N1 (stereo not drawn),-0.25

row,SMILES,% Inhibition @ 10 uM [%]
1,CCN1C(=O)N/C(=C/c2cccc(OC)c2OCc2cccc(C(=O)O)c2)C1=O,-2.85
2,COCCCNc1nc2c(c(=O)n(C)c(=O)n2C)n1Cc1ccccc1C,-3.05
3,COc1ccc(C(=O)N(Cc2nc(-c3ccc(Cl)cc3)no2)C(C)C)cc1OC,-1.84
4,COc1ccc(S(=O)(=O)NCCOc2cccc3cccnc23)cc1OC,-2.5
5,Cc1cc(/C=C2\SC(=O)NC2=O)c(C)n1-c1cccnc1,5.3
6,O=C(O)/C=C\C(=O)Nc1cccc2cccnc12,-0.127
7,CCCCCOc1ccc(C2(c3ccccc3)NC(=O)NC2=O)cc1 (stereo not drawn),-0.687
8,CC1(C)CC(NC(=O)C2CCCC2)CC(C)(CNC(=O)C2CCCC2)C1 (stereo not drawn),-3.92
9,COc1ccc(CCNC(=O)Cn2c(-c3nonc3N)nc3ccccc32)cc1OC,-1.79
10,CCCC1=C(C(=O)OCC)C(c2ccccc2OCC)NC(=O)N1C (stereo not drawn),3.87
11,Cc1ccc(SCC(=O)Nc2cccc(NC(=O)COc3ccccc3)c2)cc1,-0.0938
12,COc1ccc(/C=C/c2nc(=O)cc(-c3ccccc3)o2)cc1,0.275
13,Cc1ccc(S(=O)(=O)NCc2cn3cccc(C)c3n2)c(C)c1,0.00665
14,CCOc1ccc(-c2nonc2NC(=O)COc2ccc(CC)cc2)cc1OCC,1.9
15,CC1CCN(C(=O)CN(c2cccc3ccccc23)S(C)(=O)=O)CC1,-2.44
16,O=C(O)c1cccc(NC(=O)c2cccc(NC(=O)c3cccs3)c2)c1,3.58
17,Cc1c(C(=O)NCCC2=CCCCC2)sc2ncnc(N3CCCCC3C)c12 (stereo not drawn),4.35
18,Nc1c(C(=O)Nc2ccc(F)cc2)sc2nc3c(cc12)CCCC3,-4.66
19,CC1CCN(c2nc3c(S(=O)(=O)c4ccc(Br)cc4)nnn3c3ccsc23)CC1,-4.95
20,Cc1ccc(-n2nnc3c(=O)n(Cc4ccccc4C)cnc32)cc1,-2.16
21,O=C(Cn1cc2c(n1)CCCCC2)N1CCC2(CC1)OCCO2,0.137
22,Cc1cc2c(c(=O)n1Cc1ccccc1)C(c1ccc3c(c1)OCO3)C(C#N)=C(N)O2 (stereo not drawn),0.343
23,O=C(Nc1ccc(Cl)c(C(F)(F)F)c1)c1ccco1,5.35
24,COc1ccc(-c2nc(CN(C)C)ccc2O)cc1,-1.45
